The term Km denotes the concentration of substrate that gives half-maximal velocity.

The data set deals with O=C(O)CCCC(=O)N[C@@H](Cc1ccccc1)C(=O)Nc1ccc2ncccc2c1. The experiment in a line: Kinetic constant was determined from the initial rates of enzymatic hydrolysis by the Lineweaver-Burke method against alpha-chymotrypsin enzyme at a concentration of 2.0 uM. The following applies: Sus scrofa.

“Chymotrypsinogen B (Homo sapiens) (sequence not shown)”: the Km was 1800 µM.

The values are drawn from ChEMBL document CHEMBL1122724, “Synthesis and kinetic studies of protease substrates containing the 1-methyl-6-aminoquinolinium ion as a fluorogenic leaving group” (J Med Chem, 1984).
